Our source for the z-score values is PubChem BioAssay AID488969 (Vanderbilt High Throughput Screening Facility, 2010).

Whole data set: some 110,000 compounds, median “z-score” near -0.1, cut for the highest 2% near 2. The list shows a part of the results. Active and inactive are the calls of the source.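 The calls were made as follows: active = z-score in the third read window above 3 or below -3; inactive = the rest.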

The target in this assay is Metabotropic glutamate receptor 8 (Rattus norvegicus) (UniProt P70579). The assay is described as follows: mGluR8 Gi/Go-coupled signaling modulation – cell-based, rat, thallium flux, HTS, primary screen (AID 488969). As to conditions: HEK293 rat mGluR8, GIRK (G protein-gated inwardly rectifying potassium channel) thallium flux, FluoZin2; at 10 µM; stronger effect = higher value; submaximal glutamate (EC20) added with thallium.
UniProt P70579, sequence (P70579 whole entry, looked up): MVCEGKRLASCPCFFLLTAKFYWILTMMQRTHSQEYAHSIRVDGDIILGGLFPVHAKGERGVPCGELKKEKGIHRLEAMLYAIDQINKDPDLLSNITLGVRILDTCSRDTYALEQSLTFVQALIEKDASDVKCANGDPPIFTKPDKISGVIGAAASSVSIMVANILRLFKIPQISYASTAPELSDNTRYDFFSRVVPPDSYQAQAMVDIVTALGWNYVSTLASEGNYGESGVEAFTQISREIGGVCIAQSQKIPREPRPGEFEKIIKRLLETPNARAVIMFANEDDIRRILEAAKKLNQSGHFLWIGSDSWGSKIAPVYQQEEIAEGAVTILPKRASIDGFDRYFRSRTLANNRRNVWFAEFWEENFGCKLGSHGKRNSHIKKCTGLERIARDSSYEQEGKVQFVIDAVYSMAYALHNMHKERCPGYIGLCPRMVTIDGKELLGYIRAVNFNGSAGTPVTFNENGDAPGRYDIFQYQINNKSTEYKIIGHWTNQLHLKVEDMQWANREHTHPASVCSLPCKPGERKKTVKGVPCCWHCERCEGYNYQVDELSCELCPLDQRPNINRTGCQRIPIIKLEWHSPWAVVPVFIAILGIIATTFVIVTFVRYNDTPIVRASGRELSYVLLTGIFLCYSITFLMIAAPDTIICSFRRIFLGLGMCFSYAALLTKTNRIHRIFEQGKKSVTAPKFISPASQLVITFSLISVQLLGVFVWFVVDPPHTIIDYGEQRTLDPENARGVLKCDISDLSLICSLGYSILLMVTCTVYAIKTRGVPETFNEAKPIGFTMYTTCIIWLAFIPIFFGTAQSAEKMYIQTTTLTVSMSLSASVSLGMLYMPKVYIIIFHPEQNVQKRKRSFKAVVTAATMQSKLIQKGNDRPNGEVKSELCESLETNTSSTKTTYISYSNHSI
For `CC(C)NC(=O)C1CCN(C(=O)C(C(=O)c2ccccc2)n2cc(Cl)ccc2=O)CC1` (stereo unspecified), the z-score was determined as 0.609.
The same measure for `CC(=O)Nc1ccccc1Sc1ccccc1`: 0.023; for `Cc1csc(SC(C)C(=O)Nc2ccc(S(=O)(=O)N3CCCC3)cc2)n1` (stereo unspecified): -0.347.
Under `CC(=O)c1cccc(NC(=O)Cc2ccc3c(c2)CCCC3)c1` stands 0.168; under `CCCc1cc(=O)[nH]c(SCC(=O)N2CCN(S(=O)(=O)c3ccc(C)cc3)C2)n1`, 0.457; under `O=C1c2cccc(OCC(=O)N3N=C(c4cccs4)CC3c3ccc(F)cc3)c2CCN1Cc1cccnc1` (stereo unspecified), 0.804.
Consider `O=S(=O)(NCCCN1CCN(c2ccccc2F)CC1)c1cccc2cccnc12`, for which the z-score came to 1.24.
Take `Cc1cccc(N(C(=O)CCC(=O)Nc2ccccn2)C(C(=O)NC(C)C)c2ccc(O)cc2)c1` (stereo unspecified): the z-score was found to be 0.691.
`Cc1[nH]c(=O)[nH]c1C(=O)CCCCC(=O)OCC(=O)Nc1ccccn1` came in with a z-score of -0.322.
Under `O=C(N/N=C/c1ccccc1Cl)c1[nH]c2ccc(Br)cc2c1-c1ccccc1` stands -0.402.
The compound `Cn1c(=O)c2nnn(/N=C(\c3ccccc3)C3CC3)c2n(C)c1=O` yielded a z-score of -0.0655.
Turning to `CCCn1c(=N)n(CCOc2ccc(OC)cc2)c2ccccc21`, the z-score was active: 3.04.
Regarding `NNC(=O)c1ccc(Cn2cc(Cl)cn2)cc1`, the z-score is -0.35.
Under `CCOC(=O)c1ccc(NC(=O)CSc2nnc(COc3ccccc3OC)n2CC)cc1` stands -0.189; under `C=CCOc1cccc(/C=C2\C(=O)N(Cc3ccc(C)cc3)C(C)=C2C(=O)OC)c1`, -0.161.
Under `COc1ccc(/C=C/C(=O)Nc2ccc(-n3nncc3-c3ccccc3)cc2)cc1OC` stands 0.904.
Compound `CCCCCSc1nnc2c(n1)OC(c1cccn1C)N(C(C)=O)c1ccccc1-2` (stereo unspecified) gave a z-score of 0.139.
The same measure for `CCOC(=O)c1sc(C)c2c1NC1(CCCCC1)NC2=O`: 0.0327; for `Cc1cc(NC(c2ccc(Cl)cc2)c2ccc3cccnc3c2O)no1` (stereo unspecified): 1.61.
In turn, `COc1cccc(OC)c1C(=O)OCC(=O)Nc1ccc(OC(F)(F)F)cc1` returned a z-score of -0.154.
The same measure for `COn1c(=S)[nH]c2ccccc2c1=O`: 1.06; for `O=[N+]([O-])c1nn(-c2ccccc2)n(O)c1=NCCc1ccccc1`: 0.152.
Take `Cc1nn(C)c(C(=O)Nc2ccn(Cc3c(F)c(F)cc(F)c3F)n2)c1[N+](=O)[O-]`: the z-score was -0.107.
The same measure for `COc1ccc(CCN2C(=O)CS/C2=N\NC(=O)c2ccc(C(C)(C)C)cc2)cc1OC`: -0.294; for `COCCCNCCOc1ccc(C(C)(C)c2ccccc2)cc1`: 0.437.
Under `C[C@H](NS(=O)(=O)c1ccccc1)C(=O)OCC(=O)NC(=O)Nc1ccc2c(c1)OCCO2` stands 0.378; under `Cc1cccn2cc(CNC(=O)CC3CCCC3)nc12`, -0.382.
The same measure for `O=C(Nc1ccncc1)c1cc(F)cc(F)c1`: 0.0311.
With `COc1ccc(OC(C)C(=O)NC2CC(C)(C)NC(C)(C)C2)cc1` (stereo unspecified), the z-score is -0.345.
The same measure for `COC(=O)Oc1ccc(/C=N/NC(=O)CN(c2ccccc2Cl)S(C)(=O)=O)cc1OC`: -0.464.
The same measure for `Cc1sc2nc(CN3CCOCC3)nc(NS(=O)(=O)c3ccccc3)c2c1C`: -0.393.
Under `Cc1nn(CC(=O)NCCN2CCOCC2)c(=O)c2ccccc12` stands 0.993; under `O=C(NCCc1ccccc1)C(=O)NC1CCCCC1`, 1.55; under `Cn1c(=O)c2c(ncn2CC(=O)N(Cc2ccccc2)c2ccccn2)n(C)c1=O`, -0.0804.
Take `O=c1cc(/C=C/c2cccs2)[nH]c2ccccc12`: the z-score is -0.116.
The same measure for `CCC(C)OC(=O)C1=C(C)O[C@]23OC(N)=C(C#N)[C@]12C(=O)c1ccccc13` (stereo partly specified): -0.703.
Under `CN(C)C(=O)c1ccccc1Sc1cc(Cl)ccc1Cl` stands -0.216; under `Cc1cc(NC(=O)CSc2nc3ccsc3c(=O)n2Cc2ccccn2)n[nH]1`, 0.559.
The compound `CCOc1ccc(-c2noc(CCC(=O)O)n2)cc1` came in with a z-score of -0.8.
Under `CCc1ccc(C(=O)OCC(=O)Nc2cccc(S(=O)(=O)NC3=NCCCCC3)c2)cc1` stands 1.21; under `CCCCn1c(=O)[nH]c(=O)c2c1nc(CN1C(=O)c3ccccc3S1(=O)=O)n2CCC`, -0.0545.
The same measure for `Cc1ccc(S(=O)(=O)NCCC(=O)Nc2ccc(Cl)c(Cl)c2)cc1`: 0.267; for `Cn1nnnc1SCc1nnc(-c2ccc(Cl)cc2)o1`: 2.68; for `Cc1ccc(/C=N/Nc2ccc3c(C(F)(F)F)cc(C(F)(F)F)nc3n2)cc1`: -0.572.
Under `Cc1ccc(OCc2nnc(SCC(=O)Nc3cccc4ccccc34)n2-c2ccccc2)cc1` stands -0.328; under `CC(=O)NC(NC(=S)Nc1ccc(N=Nc2ccccc2C)cc1C)C(Cl)(Cl)Cl` (stereo unspecified), 0.143; under `O=C(NCCCN1CCOCC1)c1ccc(CNS(=O)(=O)c2ccc(F)cc2)cc1`, 0.0341.
`CCc1nc(SCC(=O)N2CCOCC2)c2c(=O)n(C)c(=O)n(C)c2n1` gave a z-score of -0.127.
Under `COc1ccc(-c2nc(SC)n(C(=O)c3ccco3)n2)cc1` stands -0.557; under `O=c1c2c([N+](=O)[O-])cc([N+](=O)[O-])cc2sn1-c1ccc(Br)cc1`, -0.194; under `CCCCCn1c(CNC(=O)CC)nc2ccccc21`, -0.601.
For `CC(C)OC(=O)COc1ccc(-c2ccccc2)cc1`, the z-score was 0.502.
The same measure for `CCCc1[nH]nc2c1C(c1cccc(OC)c1)C(C#N)=C(N)O2` (stereo unspecified): -0.647; for `O=C(c1noc2c1CCc1ccccc1-2)N1CCCc2ccccc21`: -0.308; for `CC(=O)c1cccc(NC(=O)c2cc3ccccn3n2)c1`: -0.0302.
In the case of `CCOc1ccc(/C=C/C(=O)Nc2ccc(N3CCOCC3)cc2)cc1`, the z-score was -0.494.
The same measure for `Cc1cccc(C)c1NC(=O)C1(N2C(=O)CC2c2ccccc2)CCCCC1` (stereo unspecified): -0.216; for `O=C(CS(=O)(=O)Cc1ccccc1)N1CCc2ccccc21`: -0.121; for `COc1cccc(/C=C/C(=O)Oc2ccc(C(=O)c3ccc(F)cc3)cc2)c1`: -2.23.
Turning to `C=CCn1c2ccccc2c2nnc(SCN3C(=O)c4ccccc4C3=O)nc21`, the z-score is -0.209.
The same measure for `CN1C=CC2=C(C#N)C(N)C(C#N)(C#N)[C@H](c3ccccc3)[C@H]2C1` (stereo partly specified): -2.28.
Under `O=C(Oc1ccc2cc(Br)ccc2c1)N1CCCCCC1` stands -0.558; under `O=C(CN1C(=O)c2ccccc2S1(=O)=O)c1ccccc1`, 0.695.
Under `CC1(C)CC(=O)c2c(n(S(=O)(=O)c3ccccc3)c3ccc(NS(=O)(=O)c4ccccc4)cc23)C1` stands -0.471.
Consider `Nc1cc(C(=O)OCC(=O)NC(c2ccccc2)c2ccccc2)ccc1Cl`, for which the z-score was -0.446.
Under `Cc1ccc(S(=O)(=O)N2CCCCC2)cc1NC(=O)c1ccc2c(c1)OCO2` stands -0.702.
Under `Cc1ccc(C)c(NS(=O)(=O)c2cc(C(=O)Nc3cccc(N(C)S(C)(=O)=O)c3)ccc2C)c1` stands -0.232; under `COc1cccc(-c2nc(-c3ccc(NC(=O)c4ccncc4)cc3)no2)c1`, -0.0821.
The same measure for `CN(CCCNC(=O)C1CCN(S(=O)(=O)N2CCC3(CC2)OCCO3)CC1)Cc1ccccc1`: -0.136.
With `Cc1nc(NC(=O)/C=C/c2ccccc2)sc1C(=O)Nc1ccccc1`, the z-score is -0.145.
Under `Cc1ccc(NC(=O)OCC(F)(F)C(F)F)cc1NC(=O)OCC(F)(F)C(F)F` stands -1.09.
The same measure for `COc1ccc(-c2csc(/C(C#N)=C\c3ccc(OC)c([N+](=O)[O-])c3)n2)cc1`: -0.149; for `CC(C)[C@H](NC(=O)OC(C)(C)C)c1nnc(SCC(=O)Nc2ccc(Br)cc2)o1`: -0.355.
Under `Cc1ccc2c(c1)CCCN2C(=O)c1ccco1` stands -0.144; under `COc1ccc(NS(=O)(=O)c2cccc(NC(=O)CCC(=O)c3ccc(Cl)cc3)c2)cc1`, 0.265; under `COc1ccc(NC(=O)C(C)Sc2nnc3c4c(nc(-c5ccc(OC)cc5)n23)CC(C)(C)OC4)cc1` (stereo unspecified), -0.127.
For the compound `CC(C)CCNC(=O)CCCn1c(=O)[nH]c2ccc(Br)cc2c1=O`, the z-score turned out to be 0.655.
The same measure for `CCOc1ccccc1-c1nnc(SCC(=O)NC2CC3CCC2C3)n1CC` (stereo unspecified): -0.246; for `COC(=O)c1sccc1NC(=O)/C=C\c1ccc(Cl)cc1Cl`: -0.187; for `CCOc1ccc(NC(=O)CSc2nnc(Cc3cccn3C)n2-c2ccc(OC)cc2)cc1`: -0.312.
The same measure for `COc1ccc(OC)c(-n2c(SC)nnc2-c2c[nH]c3ccccc23)c1`: -0.491; for `CCCCCCCC1(C)NC(=O)N(c2ccccc2)N1` (stereo unspecified): 0.742.
The same measure for `CCOc1ccccc1N1C(=O)CC(N(O)c2ccccc2)C1=O` (stereo unspecified): -0.0542; for `CCOC(=O)c1nn(-c2ccccc2)c(C(=O)OCC)c1N`: 0.0306; for `CC(C)c1nc2sc3c(NCc4ccccc4)ncnc3c2c2c1COC(C)(C)C2`: 0.843.
`O=C(NC(=S)Nc1cc(C(F)(F)F)ccc1N1CCOCC1)c1sc2ccccc2c1Cl` gave a z-score of 0.206.
The same measure for `COc1cccc(Nc2nnc(SCC(=O)N(CC(C)C)CC(C)C)s2)c1`: -0.309; for `Oc1sc(C=Nc2ccccc2)c2ccccc12`: 0.112.
The same measure for `COc1ccc(OC(=O)Nc2ccccc2)cc1`: 0.225; for `CNC(=S)N(Cc1cccs1)Cc1cc2ccc(OC)cc2[nH]c1=O`: -0.16; for `Cc1cc2nc(-c3ccc(SCC(=O)Nc4ccc(S(=O)(=O)N5CCCC5)cc4)nc3)[nH]c2cc1C`: -0.123.
Under `O=C(CCNC(=O)c1ccc(Br)o1)NC1CCCC1` stands 0.944.
The compound `COc1ccc(N(C)C(=O)CCS(=O)(=O)c2cccc3nonc23)cc1` displayed a z-score of -0.499.
Under `COC(=O)CCC(=O)N1CCOCCOCCN(C(=O)CCC(=O)OC)CCOCCOCC1` stands -0.0679.
Under `CCOC(=O)CSc1nc2ccccc2c(=O)n1C` stands -0.963.
Under `CCc1cccc2c(N=O)c(O)[nH]c12` stands -0.394; under `O=C(c1ccco1)N1CCN(S(=O)(=O)c2ccc(S(=O)(=O)NC3CC3)cc2)CC1`, -0.31.
On to `O=C1c2ccccc2C(=O)c2c1cccc2N1CCN(CCO)CC1`, for which the z-score is -0.119.
Under `COC(=O)c1c(NC(=O)CCCC(=O)O)sc2c1CCC2` stands -0.046; under `O=C(CCCc1ccccc1)Nc1cccc2c1CCCC2`, -0.0829; under `Cn1c(=O)c(=O)n(C)c2cc(S(=O)(=O)CCC(=O)N3CCOCC3)ccc21`, 0.0626.
Turning to `Cc1ccc2occ(/C=N/O)c(=O)c2c1`, the z-score is -0.606.
The same measure for `CN(C)Cc1ccccc1Cc1ccccc1`: -0.0119; for `Cc1cc(C)c(NC(=O)CSc2nc3c(c(=O)n2C)SC(C)C3)c(C)c1` (stereo unspecified): -0.745.
`COC(=O)c1ccc(Cc2ccccc2)o1` yielded a z-score of 0.148.
Under `CN(C)c1nc(SCCOC(=O)c2ccccc2)nc(N(C)C)n1` stands -0.235.
